Results from PubChem BioAssay AID1347417 (National Center for Advancing Translational Sciences (NCATS), 2020).
The campaign covered roughly 120,000 compounds. About 5,300 (4.4%) were called active. This list was built around the results that the source calls inconclusive (neither active nor inactive); the mix of calls is not that of the screen. Calls come from the whole dose curve; as a rule, active = well fitted inhibition curve with a large enough effect; inconclusive = small, poorly fitted or top-dose-only effect; inactive = no such curve, though single readings can be large or run the other way. Where the call is inconclusive, the potency comes from a doubtful curve fit.

Assay: qHTS Primary assay for Inhibitors of Plasmodium falciparum Dd2 growth in vitro; note: nearly all actives have a fitted effect of over 65% in size
Settings: P. falciparum Dd2 growth, SYBR Green, 72 h; series mostly up to 28.9 µM
Summary of the method: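 Infected erythrocytes (Dd2, 0.3% parasitemia, 2.5% hematocrit final) are added to compound in RPMI-1640/Albumax II medium, grown 72 h at 37C in low oxygen, then lysed with saponin/Triton-X containing SYBR Green and read by fluorescence.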
Potency is the fitted concentration of half-maximal effect; tags give direction and shape of the fitted curve.

SMILES | Potency
CCCc1nnc([C@H]2CCN(C(=O)c3ccccc3)C2)o1 | inconclusive: 1.26 µM [inhibitor, full curve]
COCC(=O)N1CCC2(CC1)OC(=O)N(Cc1cccc(OC)c1)C2(C)c1cccnc1 (stereo not given) | inactive
O=c1cc(-c2ccncc2)oc2c(-c3ccccc3Oc3ccccc3)nccc12 | inconclusive: 1.78 µM [inhibitor, full curve]
CC(=O)Nc1ccc(C2(C(=O)N3CCC(N4CCCCC4)CC3)CCCCC2)cc1 | active: 12.6 µM
CCC(=O)Nc1sc2c(c1C(=O)Nc1ccccc1C)CCC(C)C2 (stereo not given) | inconclusive: 3.98 µM [inhibitor, single point]
CCOC(=O)Cn1cc2c(c1-c1ccc(Cl)cc1)c(=O)n(C)c(=O)n2C | inactive
Cc1c(C(=O)NCc2ccc(Cl)cc2)sc2nc3n(c(=O)c12)CCCC3 | inconclusive: 6.31 µM [inhibitor, partial curve]
COC(=O)N1CCC2(CC1)C(=O)NN=C2C1CC1 | inactive
CCCCN(Cc1ccccc1)S(=O)(=O)c1ccc2c(c1)CC(C)N2C(=O)CC (stereo not given) | inconclusive: 17.8 µM [inhibitor, single point]
COc1ccccc1Cc1nc2ccccc2nc1SCC(=O)NCCc1ccccc1 | inconclusive: 17.8 µM [inhibitor, single point]
Cc1ccc(C(=O)N2CCC3(CC2)CC(c2ccccc2)C(=O)N3C)cc1 (stereo not given) | inactive
CCC(c1cccs1)N1C(=O)[C@H]2CN(S(=O)(=O)c3cc(F)cc(F)c3)C[C@H]2C1=O (stereo not given in full) | inconclusive: 10 µM [inhibitor, single point]
C=CCN(C)C(=O)[C@H]1CN2CCC1C[C@@H]2Cn1cc(CNC)nn1 (stereo not given in full) | inactive
COc1ccc(-c2nc(CSCC(=O)NCCc3ccc(C)cc3)c(C)o2)cc1OC | inconclusive: 12.6 µM [inhibitor, single point]
O=C1c2ccccc2CN1C1CCN([S+](=O)([O-])c2ccccc2)CC1 | inactive
Cc1cccc(CCNC(=O)CCS(=O)(=O)c2cc3c(cc2Cl)NC(=O)CO3)c1 | inconclusive: 0.631 µM [inhibitor, full curve, poor fit]
O=C(CN1CC2CC(C1)[C@H]1CCCC(=O)N1C2)NCc1cccc(F)c1 (stereo not given in full) | inactive
O=C1NC2(CCN(Cc3ccccn3)C2)Oc2ccccc21 (stereo not given) | inactive
O=C1NCCCCCCN(Cc2ccncc2)[C@@H]2CN(C(=O)NC3CCCCC3)CC[C@@H]12 | inconclusive: 1.78 µM [inhibitor, full curve]
Cc1cc(=O)cc(C(=O)N2CCC(O)(CN3CCOCC3)C(C)(C)C2)o1 (stereo not given) | inactive
